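Cultured in 96-well plates, cells were exposed to test compound for 48 hours across five concentrations. Abbreviation: GI50, concentration required for 50% inhibition of growth. At the TGI there is no net growth.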
System: NCI-H322M lung
Assay: NCI tumour cell line growth inhibition, 48 h

Compound	GI50	TGI
O=C(CCCCCCNC(=O)C(O)(O)C(F)(F)F)Nc1ccc(-c2ccccc2)cc1	5.31 µM	32.7 µM
O=S(=O)(NC1CC2CCC1C2)c1ccc2c(c1)C(=NO)c1cc(S(=O)(=O)NC3CC4CCC3C4)ccc1-2 (centres undefined)	> 100 µM	> 100 µM

From PubChem BioAssay (NCI)
